# Reference: PubChem BioAssay AID624418 (National Center for Advancing Translational Sciences (NCATS), 2012)
# The campaign covered roughly 410,000 compounds. About 530 (0.13%) were called active. The shares of active, inactive and inconclusive entries below differ from those in the screen. Calls come from the whole dose curve; as a rule, active = well fitted inhibition curve with a large enough effect; inconclusive = small, poorly fitted or top-dose-only effect, or another doubt; inactive = no such curve, though single readings can be large or run the other way. Potencies beside an inconclusive call are fits to weak or partial responses and may not hold up.
# Test: qHTS of GLP-1 Receptor Inverse Agonists: Cytotox Screen
# Settings: HEK293 cAMP-luciferase reporter cells, luminescence, 24 h; activity change, negative = inhibition: at 38.3 µM (top of the series) unless noted
# Procedure, shortened: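 Step one: seed cells (200 cells/uL, DMEM with 10% Nu serum, 1% pen-strep). Step two: 12-hour incubation at 37 deg C. Step three: pin 23 nL compound, incubate 24 hr. Step four: add luciferase reagent, read luminescence 12 min later.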
# % is set by controls: 0 for no effect and ±100 for the full control effect; potency is the fitted concentration of half-maximal effect.
Compound,Potency,"activity change, negative = inhibition"
COCCn1c(=O)c2c(nc3n2CC(C)CN3CCc2ccccc2)n(C)c1=O (stereo not drawn),"inconclusive: 12.6 µM [inhibitor, single point]",
O=S1(=O)C=C(Sc2nnc(-c3ccccc3)o2)c2ccccc21,"inconclusive: 31.6 µM [inhibitor, partial curve, poor fit]",
C/C(=N\NC(=O)c1nnn(-c2nonc2N)c1C)c1ccc(OCc2ccccc2)cc1,inactive,
O=C(Nc1cccc(S(=O)(=O)Nc2ccc(Cl)cc2)c1)c1ccc(Cl)nc1,"inconclusive: 3.55 µM [inhibitor, partial curve, poor fit]",
Cn1cc(C(=O)N2CCN(C(=O)c3ccco3)CC2)c2c3ccccc3n(C)c2c1=O,"inconclusive: 28.2 µM [inhibitor, single point]",
CCCN(CC(=O)Nc1cc(Cl)ccc1Cl)C(=O)c1ccccn1,"inconclusive: 11.2 µM [inhibitor, single point]",
COc1cccc(C(=O)N2N=C(c3cccc(OC)c3)CC2(O)C(F)(F)F)c1 (stereo not drawn),"inconclusive: 11.2 µM [inhibitor, single point]",
Cc1ccsc1C(=O)OCC(=O)NCc1ccco1,,inactive: -4.81% [at 7.66 µM]
Oc1c(CN2CCN(c3ccccn3)CC2)cc(Cl)c2cccnc12,"inconclusive: 0.501 µM [inhibitor, full curve, poor fit]",
C/C(=N\NC(=O)c1ccccc1-n1cccc1)c1ccccn1,"inconclusive: 2 µM [inhibitor, full curve, poor fit]",
CCN(CC(=O)Nc1ccc(OC)cc1)C(=O)c1cc(-c2cccs2)nn1-c1ccccc1,"inconclusive: 14.1 µM [inhibitor, single point]",
C=CC(=O)Nc1ccc(Nc2nc(NC3CCC(N(C)C)CC3)nc3c2ncn3C(C)C)cc1 (stereo not drawn),"inconclusive: 1 µM [inhibitor, full curve]",
O=C(NC(=S)Nc1cnc2ccccc2c1)c1ccccc1,"inconclusive: 10 µM [inhibitor, partial curve]",
Nc1nnc(-c2ccc(Cl)cc2Cl)s1,inactive,
O=C(N/N=C(\CC(=O)c1cccs1)C(F)(F)F)c1ccncc1,"inconclusive: 10 µM [inhibitor, single point]",
O=C(Nc1ccc(Cl)c([N+](=O)[O-])c1)ONC1=NCCCCC1,inactive,
O=C(c1ccc(CS(=O)c2ccccc2Cl)o1)N1CCN(c2cccc(Cl)c2)CC1 (stereo not drawn),"inconclusive: 1.26 µM [inhibitor, full curve, poor fit]",
COc1ccccc1N1CCN(C(=O)COc2ccc(Cl)cc2Br)CC1,"inconclusive: 10 µM [inhibitor, partial curve, poor fit]",
